Read counts are not given, so values of variants with three or more changes are uncertain.
B1: CPEB3 Ribozyme (parent)
chain: UAACAGGGGGCCACAGCAGAAGCGUUCACGUCGCAGCCCCUGUCAGAUUCUGGUGAAUCUGCGAAUUCUGCUGUAUAUCUC

Variants of: B1
Assay: self-cleavage, relative activity (ratio to wild type); higher = more cleavage; in vitro, sequencing
Summary of the method: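 After error-prone PCR and barcoding, CPEB3 ribozyme mutant libraries were transcribed with T7 RNA polymerase at 37°C for 5 hours, then given 15 min with DNase I before an EDTA stop, and they cleaved during both steps. Reverse transcription with template switching preceded Illumina sequencing. Relative activity divides a variant's cleaved/total read fraction by the unmutated ribozyme's. At least 5 reads were required per variant, and three batches were averaged.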

Variant | self-cleavage
UAACAGGGGGCCACAGCAGAAGCGUUCACGCCGCAGCCCCUGUCGGAUUCUGGUGGAUCUGCGAAAUCUGCUGUAUAUCUC [U31C A45G A56G U66A] | 0.1
UAACAGGGGGCCACAGCAGAAGCGUUCACGCCGCUGCCCCAGUCAGAUUCUGGUGAAUCUGCGAAUUCUGCUGUAUAACUC [U31C A35U U41A U78A] | 0.09
UAACAGGGGGCCACAGCAGAAGCGUUCACGACGCAGCCCCUGUCAGAUUCUGGUGAAUCCGCGAAUUCUGCUGUAUAUCCC [U31A U60C U80C] | 0.14
UAACAGGGGGCCACAGCAGAAGCGUUCACGCCGCAGCCCCUGUCAGGUUCUGGUGAGUCUGCGAAUUCUGCUGUAUGUCUC [U31C A47G A57G A77G] | 0.32
UAACAGGGGGCCACAGCAGAAGCGUUCACGCCGCGGCCCCUGUCUGAUUCUGGUGAAUCUGCGAAUUCUGCUGUAUAUCAC [U31C A35G A45U U80A] | 1.07
UAACAGGGGGCCACAGCAGAAGCGUUCACGACGCAGCCCCUGUCAGAUUCUGGCGAAUCUGCGAAUUCUGCUGUAUAUCCC [U31A U54C U80C] | 0.56
UAACAGGGGGCCACAGCAGAAGCGUUCACGCCGCAGCCCCUGUCAGAUUCUGGUGUAACCGCGAAUUCUGCUGUAUAUCUC [U31C A56U U58A U60C] | 0.16
UAACAGGGGGCCACAGCAGAAGCGUUCACGCCGCGGCCCCUGUCAGAUACUGGUGAAUCUGCGAAUUCUGCUGUAUGUCUC [U31C A35G U49A A77G] | 1.31
UAACAGGGGGCCACAGCAGAAGCGUUCACGCCGCAGCCCCUGUCAGUUUCUGGUGAAUCCGCGAAUUCUGCUGUAUAUCUC [U31C A47U U60C] | 0.08
UAACAGGGGGCCACAGCAGAAGCGUUCACGCCGCAGCCCCUGUCUGAAUCUGGUGGAUUUGCGAAUUCUGCUGUAUACCUC [U31C A45U U48A A56G C59U U78C] | 0.06
UAACAGGGGGCCACAGCAGAAGCGUUCACGACGCAGCCCCUGUCAGAUUCUGGUGAACCUGCGAAUACUGCUGUACAUCUC [U31A U58C U67A U76C] | 0.1
UAACAGGGGGCCACAGCAGAAGCGUUCACGCCGCAGCCCCUGUCCGAUUCUGGUGUAUCUGCGAAUUCCGCUGUAUAUCUC [U31C A45C A56U U69C] | 0.09
UAACAGGGGGCCACAGCAGAAGCGUUCACGCCGCUGCCCCUGUCAGAUUCUGGUGAAUCUGCGAAUUCUGCUGAAUACCUC [U31C A35U U74A U78C] | 0.6
UAACAGGGGGCCACAGCAGAAGCGUUCACGCCGCAGCCCCUGUCAGAUUCUGGUGAGUCUGCGAAUUCUGCCGUAUUUCUC [U31C A57G U72C A77U] | 0.93
UAACAGGGGGCCACAGCAGAAGCGUUCACGCCGCCGCCCCUGUCAGAUUCCGGUGAAUCUGCGAAUUCUGCUGUAUAUCUC [U31C A35C U51C] | 0.54
UAACAGGGGGCCACAGCAGAAGCGUUCACGCCGCCGCCCCUGUCAGAUUCAGGUGAGUCUGCGAAUUCUCAUGUAUAUCUC [U31C A35C U51A A57G G70C C71A] | 0.17
UAACAGGGGGCCACAGCAGAAGCGUUCACGCCGCAGCCCCUGUCAGAUUCUGGUGAGUCUGCGUAUUCUGCUGUAUAUCUC [U31C A57G A64U] | 0.18

Variant | self-cleavage
UAACAGGGGGCCACAGCAGAAGCGUUCACGCCGCUGCCCCUGUCGGAUUCUGGUGAAUCUGCGAAUUCUGCUGUAUAUCUC [U31C A35U A45G] | 0.17
UAACAGGGGGCCACAGCAGAAGCGUUCACGCCGCGGCCCCUUCCAGAUUCUGGUGAGUCCGCGAAUUCCGCUGUAUAUCUC [U31C A35G G42U U43C A57G U60C U69C] | 0
UAACAGGGGGCCACAGCAGAAGCGUUCACGCCGCAGCCCCUGUCAGAUUCUGGUGACCCUGCGAAUUCUGCUGUAUAUCUC [U31C A57C U58C] | 0.14
UAACAGGGGGCCACAGCAGAAGCGUUCACGCCGCGGCCCCUGUCAGAUUCUGGCGAAUCGGCGAAUUCUGCUGUAUAUCUC [U31C A35G U54C U60G] | 0.3
UAACAGGGGGCCACAGCAGAAGCGUUCACGCCGCAGCCCCUGUCAGAUUCUGGUGAGUCCGCGAAAUCUGCUGUAUAUCUC [U31C A57G U60C U66A] | 0.35
UAACAGGGGGCCACAGCAGAAGCGUUCACGCCGCAGCCCCUGUCUGAUUCUAGUGAAUCUGCGGAUUCUACUGUAUAUCUC [U31C A45U G52A A64G G70A] | 0.14
UAACAGGGGGCCACAGCAGAAGCGUUCACGCCGCUGCCCCUGUCGGAUUCUGGUGAAUCUGCGAAUUCUGCUGUAUACCUC [U31C A35U A45G U78C] | 0.1
UAACAGGGGGCCACAGCAGAAGCGUUCACGACGCAGCCCCUGUCAGAUUCUGGUGAAUCCGCGAACUCUGCUGUAUAUCUC [U31A U60C U66C] | 0.13
UAACAGGGGGCCACAGCAGAAGCGUUCACGCCGCAGCCCCUGUCAGAUUCUGGUGGAUCUGCCAAUUCUGCUGUAUAUCUC [U31C A56G G63C] | 0.29
UAACAGGGGGCCACAGCAGAAGCGUUCACGACGCAGCCCCUGUCAGAUUCUGGUGAAACUGCGUAUUCUGCUGUAUAUCUC [U31A U58A A64U] | 0.16
UAACAGGGGGCCACAGCAGAAGCGUUCACGACGCAGCCCCUGUCAGAUUCUGGUGAAUCUGCGAAUUCUGCCGUGUAUCUC [U31A U72C A75G] | 0.84
UAACAGGGGGCCACAGCAGAAGCGUUCACGCCGCAGCCCCUGUCGGAUUCUGGUGAAUCUGAGAAUUCCGCCGUAUAUCUC [U31C A45G C62A U69C U72C] | 0.21
UAACAGGGGGCCACAGCAGAAGCGUUCACGCCGCAGCCCCUGUCGGAUUCUGGAGAAUCCGCGAAUUCUGCUGCAUAUCUC [U31C A45G U54A U60C U74C] | 0.98
UAACAGGGGGCCACAGCAGAAGCGUUCACGCCGCGGCCCCUGUCCGAUUCUGGUGAACCUGCGAAUUCUGCUGUAUUUCUC [U31C A35G A45C U58C A77U] | 0.13
UAACAGGGGGCCACAGCAGAAGCGUUCACGCCGCAGCCCCUGUCAGGUUCUGGUGAAUCUGCGAAUUCUGCUGUAUAACUC [U31C A47G U78A] | 0.91
UAACAGGGGGCCACAGCAGAAGCGUUCACGCCGCAGCCCCUGUCGGAUUCUGGUGAAUCUGCUAAUCCUGCUGUAUAUCUC [U31C A45G G63U U67C] | 0.13
UAACAGGGGGCCACAGCAGAAGCGUUCACGCCGCGGCCUCUGUCAGAUUCUGGCGAAUCUGCGAAUUCUGCUGUAUAUCUC [U31C A35G C39U U54C] | 1.26
